# Results published in the supplement of paper PMC7826260.
# Some of the results follow. Cleavage of a single-stranded DNA pool by Rep nickase domains was read by sequencing for 1 h at 37 °C with 3 µM enzyme; only the middle of the 90-letter strands is printed. Numbers give uncut DNA relative to the enzyme-free pool, as log2; uncut sequences lie near 0, cut ones below; no hit call is given. Shares of all reads are compared; values above 0 arise when much of the pool is cut.
# Legend:
# Experiment in all cases: uncleaved DNA left, log2 of reads against the no-enzyme library (log2 ratio); higher = less cleavage (more negative = more Rep cleavage of the k-mer); sequences stand for … in CTCGTCCG…ACCGGAGA
# [1] = tested on: T1, Rep nickase domain of Muscovy duck circovirus
# T1 sequence (protein, residues 1-111, tag omitted): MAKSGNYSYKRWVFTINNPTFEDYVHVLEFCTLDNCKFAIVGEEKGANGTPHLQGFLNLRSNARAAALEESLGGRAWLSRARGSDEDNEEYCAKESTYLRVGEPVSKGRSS
# Experimental: (§1)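 A pool of 90-nt single-stranded DNAs with seven random bases just before the constant AC of the nick site (name = the seven bases) was cut by 3 µM recombinant His6-SUMO-tagged Rep nickase domain (300 nM DNA, 50 mM HEPES pH 8.0, 50 mM NaCl, 1 mM MnCl2, 1 h, 37 °C, three replicates). Uncut DNA was amplified and sequenced.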
# [2] = tested on: T2, Rep nickase domain of banana bunchy top virus
# T2 sequence (protein, residues 1-94, tag omitted): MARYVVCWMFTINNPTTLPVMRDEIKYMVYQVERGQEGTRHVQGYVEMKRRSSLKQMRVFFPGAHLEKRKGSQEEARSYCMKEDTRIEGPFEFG
# Experimental: as §1
# [3] = tested on: T3, Rep nickase domain of cabbage leaf curl virus
# T3 sequence (protein, residues 1-116, tag omitted): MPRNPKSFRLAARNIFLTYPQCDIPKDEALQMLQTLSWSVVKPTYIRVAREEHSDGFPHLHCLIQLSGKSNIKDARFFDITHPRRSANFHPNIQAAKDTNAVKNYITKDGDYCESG
# Experimental: as §1
# [4] = tested on: T4, Rep nickase domain of chickpea chlorotic dwarf virus
# T4 sequence (protein, residues 1-124, tag omitted): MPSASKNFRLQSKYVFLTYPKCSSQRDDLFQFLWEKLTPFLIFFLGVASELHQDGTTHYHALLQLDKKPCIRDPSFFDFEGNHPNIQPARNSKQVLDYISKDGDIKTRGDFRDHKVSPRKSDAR
# Experimental: as §1
# [5] = tested on: T5, Rep nickase domain of faba bean necrotic yellows virus
# T5 sequence (protein, residues 1-98, tag omitted): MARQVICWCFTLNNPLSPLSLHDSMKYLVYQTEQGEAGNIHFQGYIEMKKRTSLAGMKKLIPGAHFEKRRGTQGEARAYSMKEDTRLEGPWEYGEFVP
# Experimental: as §1
# [6] = tested on: T6, Rep nickase domain of maize striate mosaic virus
# T6 sequence (protein, residues 1-117, tag omitted): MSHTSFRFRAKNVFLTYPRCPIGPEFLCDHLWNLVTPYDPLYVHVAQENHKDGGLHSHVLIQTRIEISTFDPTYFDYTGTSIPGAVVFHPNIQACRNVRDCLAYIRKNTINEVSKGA
# Experimental: as §1
# [7] = tested on: T7, Rep nickase domain of porcine circovirus 2
# T7 sequence (protein, residues 2-116, tag omitted): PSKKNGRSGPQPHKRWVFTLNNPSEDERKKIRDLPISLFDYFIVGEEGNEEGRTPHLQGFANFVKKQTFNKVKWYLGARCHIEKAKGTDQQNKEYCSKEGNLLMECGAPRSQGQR
# Experimental: as §1
# [8] = tested on: T8, Rep nickase domain of tomato golden mosaic virus
# T8 sequence (protein, residues 1-124, tag omitted): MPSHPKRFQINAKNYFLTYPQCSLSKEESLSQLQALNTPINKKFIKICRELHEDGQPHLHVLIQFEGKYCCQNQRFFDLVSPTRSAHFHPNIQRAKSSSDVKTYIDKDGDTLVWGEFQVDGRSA
# Experimental: as §1
# [9] = tested on: T9, Rep nickase domain of tomato yellow leaf curl virus
# T9 sequence (protein, residues 1-136, tag omitted): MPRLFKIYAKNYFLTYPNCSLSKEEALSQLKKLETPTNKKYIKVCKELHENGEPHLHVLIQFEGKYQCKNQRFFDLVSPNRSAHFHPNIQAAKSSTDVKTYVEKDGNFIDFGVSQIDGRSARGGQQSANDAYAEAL
# Experimental: as §1
# [10] = tested on: T10, Rep nickase domain of wheat dwarf virus
# T10 sequence (protein, residues 1-137, tag omitted): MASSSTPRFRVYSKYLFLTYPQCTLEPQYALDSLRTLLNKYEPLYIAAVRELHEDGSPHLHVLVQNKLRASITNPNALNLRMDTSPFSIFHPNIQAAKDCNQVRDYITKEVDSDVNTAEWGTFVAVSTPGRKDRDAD
# Experimental: as §1
Sequence,uncleaved DNA left (log2) [1],uncleaved DNA left (log2) [2],uncleaved DNA left (log2) [3],uncleaved DNA left (log2) [4],uncleaved DNA left (log2) [5],uncleaved DNA left (log2) [6],uncleaved DNA left (log2) [7],uncleaved DNA left (log2) [8],uncleaved DNA left (log2) [9],uncleaved DNA left (log2) [10]
TGAGGAC,-0.107,0.0696,0.397,1.32,-0.0531,1.4,0.106,-0.00375,0.0118,0.0526
CATGACC,-0.166,-0.0802,-0.00741,0.293,-0.0609,0.245,-0.00739,-0.0494,-0.0222,-0.103
TCACATC,0.223,0.00313,-0.00325,-0.225,0.0113,-0.864,0.191,0.0891,0.0668,0.0996
ATCTGTC,0.0638,-0.034,-0.0879,0.228,-0.153,0.0736,-0.0208,-0.0154,-0.0948,-0.065
CAGGTGT,0.0413,-0.00133,0.111,0.858,-0.0834,0.997,-0.132,0.0127,-0.0437,-0.0632
GCCTCAC,-0.118,-0.15,0.0847,0.0331,-0.0235,0.186,-0.0321,-0.0413,-0.123,-0.145
TCTCCAC,-0.119,-0.161,0.186,0.014,0.0192,0.207,-0.15,-0.131,-0.141,-0.0881
AAGCCTT,-0.105,-0.148,-0.0306,-1.62,-0.125,0.524,-3.3,-0.159,-0.172,-0.0773
AATTCAG,0.00452,0.0384,-0.793,-0.552,0.149,-1.24,0.137,0.0785,0.0426,-0.0471
GATCCAA,0.104,0.174,0.32,0.598,0.152,0.6,0.102,0.106,0.184,0.204
GTCAGGC,0.00605,0.073,0.32,0.879,-0.0528,0.904,0.189,0.106,0.13,0.104
GCTCTTG,0.104,-0.104,-0.28,-0.402,-0.0537,-0.626,0.152,0.0565,0.096,-0.0749
AAGCCTC,0.0402,0.105,0.323,-0.21,0.139,0.221,-0.171,0.128,0.107,0.105
AATTCCA,-1.72,-0.584,-0.119,-2.61,-0.0887,-0.611,-2,-0.124,-0.0508,-0.0726
CTAATCT,-0.0472,0.119,0.221,-2.07,-0.0299,-0.728,-0.0151,-0.07,0.0709,0.0545
GGACGAG,0.126,0.234,0.932,1.94,0.135,2.1,0.287,0.136,0.186,0.27
TCCTCAC,-0.136,-0.0528,-0.00865,-0.47,0.043,-0.423,0.0249,-0.0507,-0.108,-0.154
GCCTCCT,-0.187,-0.106,0.0142,-0.953,-0.00314,0.223,-0.701,-0.0804,-0.143,-0.082
GCTGGAC,0.11,0.151,0.725,1.87,-0.0148,2.1,0.233,0.104,0.132,0.187
GCAAACG,0.024,-0.0157,-0.721,-0.306,-0.0788,-0.809,0.168,-0.0548,-0.0849,-0.142
CGAACTG,-0.0245,0.0418,0.0667,0.708,0.0588,1.74,0.0238,-0.0125,0.049,0.107
CTGGTCC,-0.045,0.0241,0.208,0.00865,-0.118,0.0371,0.128,-0.14,0.028,0.127
GGATAGA,0.0496,0.137,0.794,1.72,0.0905,2,0.209,0.0525,0.0145,0.157
TGGTGAT,0.0504,0.0523,0.419,1.52,-0.0433,1.93,-0.673,0.133,0.00387,0.0614
CAGGTCA,0.0252,0.172,0.173,-0.236,0.14,0.616,-0.0772,0.164,0.24,0.157
GAAAGAT,0.0351,-0.086,0.116,-0.0729,-0.0868,1.35,0.0654,0.0288,-0.0875,0.076
CACGGCG,-0.154,-0.129,-0.784,0.169,-0.221,-0.527,0.0338,-0.189,-0.132,-0.179
AAGAATA,0.0893,-0.0352,-0.0961,-1.01,0.00667,0.526,-1.13,0.118,-0.106,0.0729
CCGACGA,-0.015,0.0171,0.0383,0.225,-0.0863,-0.147,0.0902,-0.000411,-0.082,-0.0918
GACGCCA,-0.0761,0.0349,0.174,-0.375,-0.0192,0.868,-0.0654,0.00222,0.0492,0.0961
